Assay results from paper PMC6919601, “Identification of Plasmodium dipeptidyl aminopeptidase allosteric inhibitors by high throughput screening” (PLoS ONE, 2019).
Hit rate of the full screen: of about 110,000 compounds, about 230 (0.21%) showed an effect of 50% or more. The list shows a part of the results.

target: DPAP1 (Plasmodium falciparum, UniProt Q8IIJ9); assay: primary screen, percent inhibition; read by cleavage of a fluorogenic dipeptide substrate; higher = more effect of the substance; design: species or system P. falciparum D10 trophozoite lysates; single well
Sequence (Q8IIJ9 whole entry, looked up): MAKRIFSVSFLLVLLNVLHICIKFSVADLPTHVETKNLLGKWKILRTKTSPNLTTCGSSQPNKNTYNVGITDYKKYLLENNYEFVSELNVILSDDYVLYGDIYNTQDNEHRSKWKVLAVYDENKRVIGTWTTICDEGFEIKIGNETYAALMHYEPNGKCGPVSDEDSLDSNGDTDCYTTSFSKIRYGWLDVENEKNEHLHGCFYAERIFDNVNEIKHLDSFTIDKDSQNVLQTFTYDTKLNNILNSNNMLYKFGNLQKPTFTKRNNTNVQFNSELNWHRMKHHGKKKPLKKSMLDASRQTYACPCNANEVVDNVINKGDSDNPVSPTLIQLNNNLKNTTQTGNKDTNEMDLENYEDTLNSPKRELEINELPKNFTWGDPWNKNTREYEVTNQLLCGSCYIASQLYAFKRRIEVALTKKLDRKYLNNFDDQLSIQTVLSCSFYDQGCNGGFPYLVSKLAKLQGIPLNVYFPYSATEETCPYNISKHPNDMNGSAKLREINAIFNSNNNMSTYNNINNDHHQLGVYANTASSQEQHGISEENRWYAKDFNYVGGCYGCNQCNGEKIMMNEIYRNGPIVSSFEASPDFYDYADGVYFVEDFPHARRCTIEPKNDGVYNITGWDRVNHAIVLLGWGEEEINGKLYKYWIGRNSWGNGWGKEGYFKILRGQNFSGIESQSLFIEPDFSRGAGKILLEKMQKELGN
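Note: 30 min substrate incubation versus DMSO and 10 µM JCP410 controls.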

Compared with `O=C(NCCCCCCNC(=O)c1cncc(Br)c1)c1ccc(Br)nc1`, `CCc1nc2ccc(C(=O)NCc3cc(Br)ccc3OC)cc2nc1CC` is higher in “% Inhibition @ 10 uM” value: -11.3% for the first, 7.01% for the second.

Going from `O=C1CCCc2c1n(CCN(Cc1ccccc1)Cc1ccccc1)c1ccc([N+](=O)[O-])cc21` to `c1ccc(Cn2c3ccccc3n3nc(-c4ccccc4)nc23)cc1`, the “% Inhibition @ 10 uM” value falls from -0.216% to -1.86%.

Going from `CCOc1ccc(NC(=O)c2cccs2)cc1` to `CCCCOc1ccc(NC(=O)CSc2ncccn2)cc1`, the “% Inhibition @ 10 uM” value falls from 3.03% to 0.145%.

First: Cc1ccc(N(CC(=O)N2CCN(Cc3ccccc3)CC2)S(=O)(=O)c2ccccc2)cc1
Second: CS(=O)(=O)CCC(C(=O)N1CC=C(c2ccccc2)CC1)N1Cc2ccccc2C1=O (stereo not shown)
The “% Inhibition @ 10 uM” value of the first is lower: -2.6% for the first, 3.37% for the second.

Going from `COc1cc(C2CC(=O)NC(SCc3ccccc3)=C2C#N)cc(Br)c1O` (stereo not shown) to `COc1cc(C2C3=C(O)CCCC3=Nc3nc(SCc4ccccc4F)nc(O)c32)ccc1O` (stereo not shown), the “% Inhibition @ 10 uM” value rises from -1.26% to 0.413%.

First: O=C(Nc1ccccc1)c1cccc(NC(=O)c2cccc([N+](=O)[O-])c2)c1
Second: CCc1ccc(-c2nc3cc(NC(=O)c4ccc([N+](=O)[O-])c(C)c4)ccc3o2)cc1
The “% Inhibition @ 10 uM” value of the first is higher: 5.42% for the first, -2.42% for the second.

First: CCO/C(O)=C1/C(C)=NC(=S)NC1c1ccc(OCC(=O)N2CCCCC2)cc1 (stereo not shown)
Second: CCOC(=O)C1=C(CN2CCCC2)NC(=O)NC1c1ccccc1 (stereo not shown)
The “% Inhibition @ 10 uM” value of the first is higher: 3.39% for the first, 0.44% for the second.

Compared with `Cc1cc(N(C)C)c(=O)n(-c2ccccc2)n1`, `Cc1ccccc1Cn1nnc(-c2ccc(C(=O)O)cc2)n1` is lower in “% Inhibition @ 10 uM” value: 5.74% for the first, -0.624% for the second.

First: COc1ccc(C2=NN(C(=O)C3CCCCC3)C(c3ccccc3)C2)cc1 (stereo not shown)
Second: COc1ccc(CNC(=O)c2ccc(C)cc2)cc1
The “% Inhibition @ 10 uM” value of the first is higher: -1.17% for the first, -3.44% for the second.

First: Cc1oc(-c2cccs2)nc1CSc1nnc(C)n2c1cc1occc12
Second: CCn1c(SCc2nc(-c3ccc(OC)cc3)no2)nnc1-c1ccncc1
The “% Inhibition @ 10 uM” value of the first is lower: 3.35% for the first, 4.47% for the second.

First: O=C(CN1CCCCC1)N1CCc2ccccc21
Second: Cc1ccccc1CN1CCN(CC(=O)NCCCSC2CCCCC2)C1=O
The “% Inhibition @ 10 uM” value of the first is higher: -0.414% for the first, -2.72% for the second.

First: COc1cc2c(cc1/C=C1/SC(Nc3cccc(C)c3)=NC1=O)OCO2
Second: O=C(NCCc1cccc(Cl)c1)c1ccc2c(c1)OCO2
The “% Inhibition @ 10 uM” value of the first is lower: -7% for the first, 0.316% for the second.

Going from `COc1ccc(CNc2ccc(F)cc2C)cc1C` to `COc1ccccc1-c1nc(S(C)(=O)=O)nn1Cc1ccccc1F`, the “% Inhibition @ 10 uM” value falls from -0.233% to -2.79%.

First: COc1cc(Br)cc2cc(C(=O)NCCCN(C)C)c(=O)oc12
Second: CCCCNC(=O)C1CC(c2ccc(OC)c(OC)c2)=NO1 (stereo not shown)
The “% Inhibition @ 10 uM” value of the first is higher: 5.93% for the first, -2.16% for the second.

First: COCCNC(=O)C1CCCN(S(=O)(=O)c2ccc(C)cc2)C1 (stereo not shown)
Second: COCCCNC(=O)c1ccc(CN2CCOCC2)cc1
The “% Inhibition @ 10 uM” value of the first is higher: 0.635% for the first, -1.59% for the second.

Compared with `CC(=O)c1sc(N2C(=O)c3oc4ccccc4c(=O)c3C2c2ccc(C(C)C)cc2)nc1C` (stereo not shown), `CC(=O)c1ccc2c(c1)c1ccccc1n2CCC(C)C` is higher in “% Inhibition @ 10 uM” value: 2.16% for the first, 4.18% for the second.

Compared with `Cn1c(=O)[nH]c(=O)c2c1ncn2CCNCc1ccco1`, `CC(C)CCNC(=O)Cn1c(NCCC(C)C)nc2c1c(=O)n(C)c(=O)n2C` is lower in “% Inhibition @ 10 uM” value: 0.0289% for the first, -4.85% for the second.

First: CCC(C)NC(=O)CS(=O)Cc1nc(-c2ccccc2F)oc1C (stereo not shown)
Second: CCC(C)NC(=O)C1CC1c1ccccc1 (stereo not shown)
The “% Inhibition @ 10 uM” value of the first is higher: 3.79% for the first, -1.78% for the second.

First: OC1CN2CCC1C(c1ccccc1)C2 (stereo not shown)
Second: Fc1ccc(N2CCN(C/C=C/c3ccccc3)CC2)cc1
The “% Inhibition @ 10 uM” value of the first is higher: 4.09% for the first, 0.472% for the second.

First: COc1cc(CCC(=O)NCCNC(C)=O)cc(OC)c1OC
Second: CCOC(=O)c1c(NC(=O)Cc2csc(C)n2)sc(C)c1C
The “% Inhibition @ 10 uM” value of the first is higher: 3.47% for the first, 0.758% for the second.

Going from `O=C1/C(=C/c2cc(Cl)cc([N+](=O)[O-])c2O)Sc2ccccc21` to `Cc1ccc(C2CC(=O)C(/C=N/CCN3CCN(C4OC(=O)c5ccccc54)CC3)=C(O)C2)cc1` (stereo not shown), the “% Inhibition @ 10 uM” value falls from 0.986% to -4.85%.

Compared with `CC(C)(C)OC(=O)NC(C#N)c1ccccc1` (stereo not shown), `O=C(CN1C(=O)c2ccccc2S1(=O)=O)NCc1cccnc1` is lower in “% Inhibition @ 10 uM” value: 0.528% for the first, -1.51% for the second.

Going from `Cc1ccc(S(=O)(=O)c2nnn3c2nc(N2CCC(C(N)=O)CC2)c2ccccc23)cc1` to `O=C(Cn1ccc2cc(S(=O)(=O)N3CCCC3)ccc21)NCc1ccc2c(c1)OCO2`, the “% Inhibition @ 10 uM” value falls from -6.91% to -7.02%.

First: Cc1cc(=O)[nH]c(=O)n1-c1ccc(CC(=O)O)cc1
Second: CCOC(=O)C1=C(C)NC(=O)NC1c1ccc(N(C)C)cc1 (stereo not shown)
The “% Inhibition @ 10 uM” value of the first is higher: -3.92% for the first, -4.98% for the second.

First: CCN(CC)S(=O)(=O)c1ccc(/N=C/c2c(C)nn(-c3ccc(C)cc3)c2O)cc1
Second: Cc1ccc(S(=O)(=O)C2C(=O)NC3(C)CC2c2cc(Cl)ccc2O3)cc1 (stereo not shown)
The “% Inhibition @ 10 uM” value of the first is higher: 2.36% for the first, -2.45% for the second.

Going from `Nc1c(C(=O)Nc2nncs2)sc2nc3c(cc12)N1CCC3CC1` to `Cc1ccc2oc(=O)c3cc(C(=O)NC4CCCCC4)sc3c2c1`, the “% Inhibition @ 10 uM” value falls from 0.883% to -1.54%.

First: Cc1ccc2nc3c(cc(C(=O)NCc4cccnc4)c(=N)n3CCN3CCOCC3)c(=O)n2c1
Second: CCC(Sc1nc2cccnc2[nH]1)C(=O)N1CCOCC1 (stereo not shown)
The “% Inhibition @ 10 uM” value of the first is lower: -5.14% for the first, 7.91% for the second.

Going from `N#CC1=C(N)Oc2nc(O)nc(O)c2C1c1cccc(F)c1` (stereo not shown) to `NC(=S)Nc1nc2ccccc2nc1O`, the “% Inhibition @ 10 uM” value falls from 3.1% to -5%.

Going from `O=[N+]([O-])c1ccc(N2CCN(Cc3ccc(Br)cc3)CC2)cc1` to `Cc1cc(CN2CCN(c3ccccc3F)CC2)c(C)n1-c1cccc(C(F)(F)F)c1`, the “% Inhibition @ 10 uM” value falls from 1.55% to -3.5%.

Going from `O=C(O)c1ccc(Sc2ccc(S(=O)(=O)c3ccc(C(=O)O)c(C(=O)O)c3)cc2)cc1` to `O=S(=O)(c1ccc(Cl)cc1)c1ccc(C(F)(F)F)cn1`, the “% Inhibition @ 10 uM” value falls from 11.3% to -8.12%.

First: O=C(O)C1Cc2c([nH]c3ccccc23)C(c2ccc(F)cc2)N1 (stereo not shown)
Second: COc1ccc(/C=C2/SC(=O)N(CN(C)C)C2=O)cc1
The “% Inhibition @ 10 uM” value of the first is lower: -5.9% for the first, 0.35% for the second.

First: CCN(CC)CCCNC(=O)c1cc2c(s1)CSC2
Second: CCc1nn(CC(=O)NC2CCC(C)CC2)c(=O)c2cc3sccc3n12 (stereo not shown)
The “% Inhibition @ 10 uM” value of the first is lower: -1.3% for the first, 1.8% for the second.
